# Measurements taken from patent US20250313648A1, “Binders of Chondroitin Sulfate Proteoglycan (CSPG4) Polypeptides” (Regents of the University of Minnesota, priority 2021, published 2025).
# B1: 8G5A6: anti-CSPG4 mouse antibody; heavy chain variable SEQ ID NO:24, light chain variable SEQ ID NO:32 (antibody, V domains shown)
# VH: EVQLQQSGPDLVKPGASVKISCKASGYSFTVYYMNWVKQSHGKSLEWIGRIDPNDGGASYNQKFKGKAILTVDKSSGTAYMELRSLTSEDSAVYYCARRDYYGSKDYWGQGTTLTVSS
# VL: DIVLTQSPASLAVSLGQRATISCKASQSVDYDGDSYMNWYQQKPGQPPKLLIYAASNLESGIPARFSGSGSGTDFTLNIHPVEEEDAAIYYCQQSNEDPWTFGGGTKLEIKR
# Columns and labels:
# [1] = tested on: HEY Mock and CRISPR cells; experiment: ADCC, DELFIA EuTDA cytotoxicity assay with NK92 cell lines; type: cell-based, human; details: NK cells expressing wild-type CD16a or CD16a/S197P, 1:1 effector:target ratio, 4 hrs
# Protocol: (§1) FIGS. 11A-11C. FIG. 11A) HEY Mock and CRISPR cells were treated with the indicated anti-CSPG4 monoclonal antibodies or normal mouse IgG1 (nmIgG1). The indicated NK92 cell lines were added at a 1:1 effector:target ratio and ADCC determined at 4 hrs using the DELFIA EuTDA cytotoxicity assay following the manufacturer's protocol. Bars represent the percent specific cell lysis for triplicate samples+/−s.e.m. *p<0.05, ****p<0.0001 vs. nmIgGl control by two-way ANOVA with Dunnett's multiple comparisons test. ADCC of spheroids. FIG. 111B) A repeat of the experiment of FIG. 11A. **p=0.0088, ***p<0.0009 by 2 way ANOVA with Dunnett's multiple comparisons test compared to nmIgGl control; ** and ***p<0.0009 vs no Ab control. ADCC of spheroids. FIG. 11C) OVCAR8 Mock and CRISPR cells were treated with the indicated anti-CSPG4 monoclonal antibodies or normal mouse IgG1 (nmIgGl). The indicated NK92 cell lines were added at a 1:1 effector:target ratio and ADCC determined at 4 hrs using the DELFIA EuTDA cytotoxicity assay following the manufacturer's protocol. […]
# (§2) An additional anti-CSPG4 antibody, 8G5A5, was identified using the methods of Example 6. […] The indicated NK92 cell lines were added at a 1:1 effector:target ratio and ADCC determined at 4 hrs using the DELFIA EuTDA cytotoxicity assay following the manufacturer's protocol. […]
# [2] = tested on: OVCAR8 ovarian cancer cells; experiment: as above; type: cell-based, human; details: 1:1 effector:target ratio, 4 hrs
# Protocol: as §1, §2
molecule,measurement,setting,value
B1,specific ADCC of CSPG4 positive EOC cells,[1],can mediate specific ADCC
same,specific ADCC of CSPG4 positive cells,[2],able to mediate specific ADCC
